Hit rate of the full screen: of about 410,000 compounds, about 7,200 (1.8%) were called active. This list was built around the results that the source calls inconclusive (neither active nor inactive); the mix of calls is not that of the screen. Calls come from the whole dose curve; as a rule, active = well fitted activation curve with a large enough effect; inconclusive = small, poorly fitted or top-dose-only effect, or another doubt; inactive = no such curve, though single readings can be large or run the other way. Where the call is inconclusive, the potency comes from a doubtful curve fit.
Assay: qHTS of TDP-43 Inhibitors; note: nearly all actives have a fitted effect of over 50% in size; for growth rescue (activation): % of control where 0% means no effect
Conditions: TDP-43 expressing yeast growth rescue, BacTiter-Glo, 24 h; growth rescue (activation): at 46.1 µM (top of the series) unless noted
Summary of the method: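 Luminescence from BacTiter-Glo reports growth of TDP-43-expressing yeast after 24 hr at 30 deg C with compound. Cells were raffinose-pregrown to mid-log, then seeded in galactose medium at OD600=0.02.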
Potency is the fitted concentration of half-maximal effect; tags give direction and shape of the fitted curve.

Potency, active:
Cc1cccc(N2CCN(C(=O)CCCn3ncn4c(cc5occc54)c3=O)CC2)c1C 15.8 µM
O=C(O)Cc1ccc2sc(-c3ccccc3)nc2c1 3.16 µM
COc1cccc(-c2cc(N3CCN(C(=O)c4ccoc4)CC3)n3nc(-c4cccc(Cl)c4)cc3n2)c1 3.55 µM
CCCCn1c(-c2cccs2)nc2nc3ccccc3nc21 12.6 µM
Cc1nc(NC(=O)/C=C/c2ccccc2)n[nH]1 22.4 µM
CCOc1ccc(-c2nnc3ccc(SC(C)C)nn23)cc1 15.8 µM
Cc1ccccc1Nc1nc2ccccc2s1 20 µM
COc1ccc([C@H]2CC(=O)C=C(c3cc(Cl)ccc3C)C2)cc1 20 µM

Potency, inconclusive:
COc1ccc2nc(NNC(=O)C3COc4ccccc4O3)sc2c1 (stereo not given) 3.16 µM [activator, full curve]
Cc1nc(-c2ccccc2)sc1-c1nc(-c2ccncc2)ncc1S(=O)(=O)c1ccccc1 7.08 µM [activator, full curve, poor fit]
CCOC(=O)c1cnc2c(ccc3ccccc32)c1Nc1ccc(OC)cc1OC 11.2 µM [activator, partial curve]
O=C(Cc1ccc(Br)cc1)NCCc1ccc(F)cc1 28.2 µM [activator, partial curve]
Cc1csc(NC(=O)c2cccc(S(=O)(=O)N3CCCCC3)c2)n1 35.5 µM [activator, single point]
Cc1ccccc1NC(=O)c1sc(Cl)nc1-c1ccccc1 14.1 µM [activator, single point]
COc1ccc(Cl)cc1NC(=O)c1cc2nc(-c3ccc(C)cc3)cc(C(F)(F)F)n2n1 7.08 µM [activator, full curve, poor fit]
O=c1c2nnn(Cc3ccccc3)c2ncn1C/C=C/c1ccccc1 17.8 µM [activator, partial curve]
COC(=O)c1cc(NC(=S)Nc2cc(Cl)cc(Cl)c2)cc(C(=O)OC)c1 25.1 µM [activator, single point]
COc1ccc(C(=O)Oc2ccc(F)cc2C(=O)/C=C/c2ccc(OC)c(OC)c2)cc1 20 µM [activator, single point]
CC1C(=O)N(Cc2cn(CCC3OCCCO3)nn2)CCS(=O)(=O)N1Cc1ccc(-c2ccc(Cl)c(Cl)c2)cc1 (stereo not given) 35.5 µM [activator, single point]
CC1=C(/C=C/C(=O)O)C(C)(C)CCC1 14.1 µM [activator, single point]
COc1cc(/C=C2/C(=O)N(c3ccc([N+](=O)[O-])cc3)N=C2N2CCOCC2)ccc1O 22.4 µM [activator, single point]
Cc1ccc(Nc2nc(-c3ccc(F)cc3)cs2)nc1 5.62 µM [activator, full curve]
Cc1nc2ccc(NC(=O)c3nn(CC(C)C)c(=O)c4ccccc34)cc2s1 22.4 µM [activator, single point]
O=c1[nH]cnc2c1C1(CCCC1)Cc1ccccc1-2 20 µM [activator, single point]
COc1ccc([C@H]2CC(=O)C=C(c3ccc4ncccc4c3)C2)cc1 11.2 µM [activator, single point]
Cc1nc(NC(=S)Nc2ccccc2)sc1C 35.5 µM [activator, single point]
CC1CCc2nc(NC(=O)Cc3ccc(Cl)cc3)sc2C1 (stereo not given) 35.5 µM [activator, single point]
COC(=O)C1CN(C(=O)COc2cc(C)c(Cl)c(C)c2)c2ccccc2O1 (stereo not given) 28.2 µM [activator, partial curve]
O=C(NCCc1ccccc1)C1C(=O)Nc2ccccc2C(=O)N1C1CCCCC1 (stereo not given) 35.5 µM [activator, single point]
COc1cc(OC)c(OC)cc1/C=N/Nc1ncnc2c1[nH]c1ccccc12 1.12 µM [activator, full curve, poor fit]
Cc1c(CCC(=O)NCCCCCC(=O)O)c(=O)oc2cc3occ(-c4ccccc4)c3cc12 35.5 µM [activator, single point]
Cc1cccc(NC(=S)NCc2ccc3c(c2)cc(C)n3C)c1C 11.2 µM [activator, partial curve]
CCn1c(=O)c2ccccc2n(Cc2cccc(C)c2)c1=O 12.6 µM [activator, single point]
CCN1C(=O)[C@H]2[C@@H](c3ccc(C(F)(F)F)cc3)N[C@]3(CCCN(Cc4ccc(OC)cc4)C3=O)[C@H]2C1=O 22.4 µM [activator, partial curve]
CCN(C(=O)Nc1cccc2ccccc12)c1ccccc1 12.6 µM [activator, partial curve]
CCCCN(Cc1ccco1)C(=O)C1CCCN(c2ncnc3c2nc2n3CCCCC2)C1 (stereo not given) 14.1 µM [activator, single point]
CCOC(=O)C1=CCN(S(=O)(=O)c2ccc(Cl)cc2)C1c1ccc(C)cc1 (stereo not given) 0.708 µM [activator, full curve, poor fit]
Nc1cc(-c2ccc(Br)cc2)nn1S(=O)(=O)c1cccc2nsnc12 10 µM [activator, partial curve]
CSc1cccc(NC(=O)N2CCN(S(=O)(=O)c3ccc4c(ccn4C)c3)CC2)c1 8.91 µM [activator, full curve, poor fit]
CC1=C(C(=O)OC2CCCCCC2)C(c2c(Cl)cccc2Cl)CC(=O)N1 (stereo not given) 25.1 µM [activator, single point]
O=C(NCc1ccc2c(c1)OCO2)c1ccc(-c2ccc(Cl)cc2)o1 22.4 µM [activator, single point]
COc1ccccc1C(=O)NC(=O)COc1ccc([N+](=O)[O-])cc1 35.5 µM [activator, single point]
O=C(NC1CC1)c1ccc(-c2ccccc2)cc1 10 µM [activator, partial curve]
CCOc1ccc(CCNC(c2nnc(-c3ccccc3)o2)c2ccccc2Cl)cc1OCC (stereo not given) 20 µM [activator, partial curve, poor fit]
Cc1cc(O)c(/C=N/Nc2ccccc2Cl)c(=O)o1 10 µM [activator, single point]
S=c1nc[nH]c2c1cnn2Cc1ccccc1 35.5 µM [activator, single point]
O=C(COC(=O)c1cccs1)NCCc1ccc(F)cc1 11.2 µM [activator, partial curve]
COc1cccc(-c2cn3c(n2)sc2cc(C(=O)NCCc4ccccc4)ccc23)c1 2.24 µM [activator, partial curve, poor fit]
Cc1ccc(-c2cn3c(n2)sc2cc(C(=O)NC4CCCCCC4)ccc23)c(C)c1 3.16 µM [activator, partial curve]

Potency, inactive:
CSc1cccc(NC(=O)CC(c2ccc(F)cc2)N2Cc3ccccc3C2=O)c1 (stereo not given)
CC(CNC(=O)c1cc2ccccn2n1)c1ccccc1 (stereo not given)
Cc1cc(F)ccc1NC(=O)CN1C(=O)CCc2cc(S(=O)(=O)N3CCOCC3)ccc21
C=CCNc1nc(Cl)nc(Nc2ccc(OC)cc2)n1
N#Cc1nc(COc2ccccc2F)oc1NCc1ccc(F)cc1
O=C(NCc1nc2ccccc2[nH]1)C1=C[C@@H](C2CCCCC2)C[C@@H](OCc2ccc(CO)cc2)O1
CN(C)Cc1c(C(=O)N/N=C/c2ccccc2OCc2c(F)cccc2Cl)nnn1-c1nonc1N
NC(=O)c1ccc(Oc2ccc(-c3nnco3)cc2)c([N+](=O)[O-])c1
CCOC(=O)C(C)Nc1ncnc2onc(C)c12 (stereo not given)
COc1cc(NC(=O)CCCN2C(=O)CCn3nc(-c4cn(C)c5ccccc45)cc32)cc(OC)c1
O=C(O)COc1ccccc1/C=N/NC(=O)c1cc(-c2ccc(F)cc2)nc2ccccc12
CCOc1cccc(C2c3[nH]c4ccccc4c3CCN2C(=O)Cc2cccc(OCC)c2OCC)c1 (stereo not given)
O=C(CCN1C(=O)c2ccccc2C1=O)Nc1ccccn1
O=C1CC(c2ccccc2)Oc2cc(O)ccc21 (stereo not given)
CCC(=O)N1CCc2cc(Br)cc(S(=O)(=O)N3CCN(c4cccc(Cl)c4)CC3)c21
Cc1ccc(S(=O)(=O)N2CCCCC2)cc1C(=O)Nc1ccc(S(=O)(=O)Nc2ncccn2)cc1
Cc1cc(=O)oc2cc(OCc3ccc(S(=O)(=O)N4CCOCC4)cc3)ccc12
CC1(C)Cc2c(sc3nnn(CC(=O)Nc4ccccc4)c(=O)c23)CO1
CCCN(C(=O)Cn1nc(Cc2cccnc2)c2ccccc2c1=O)c1ccc(C(C)C)cc1

Growth rescue (activation), inconclusive:
O=C(/C=C/c1ccc(F)cc1)NC(=S)NNC(=O)c1cnccn1 -81.6% [activator]
CC(=NNC(=S)N(Cc1ccccn1)Cc1ccccn1)c1cnccn1 -65.8% [activator]

From PubChem BioAssay AID652104 (National Center for Advancing Translational Sciences (NCATS), 2013)
